The results in this text go back to US20160346320A1, “SUBSTANCE FOR INHIBITING TISSUE CALCIFICATION, TISSUE FIBROSATION AND AGE-RELATED DISEASES” (Fresenius Kabi Deutschland GmbH, priority 2013, published 2016).

SMILES strings stand for the structures.

The subject of the assay is klotho^hm mice. The note with it: treatment in drinking water, versus untreated.

As to `CC(=O)Nc1nnc(S(N)(=O)=O)s1` [acetazolamide], the lifespan entry is given as “clear extension of the lifetime”.
